According to publication PMC10112805:
No constants are given. Whether binding was seen depends on the method and setting. Binding seen in cells or lysates may run through a third protein. Some results given as binding are weak or reduced against the parent protein; the word gives no strength. Tags and fused reporters may be left off the sequences shown.

The chains behind the UniProt entries cited, without tags or fusion partners.
UniProt Q86WV6: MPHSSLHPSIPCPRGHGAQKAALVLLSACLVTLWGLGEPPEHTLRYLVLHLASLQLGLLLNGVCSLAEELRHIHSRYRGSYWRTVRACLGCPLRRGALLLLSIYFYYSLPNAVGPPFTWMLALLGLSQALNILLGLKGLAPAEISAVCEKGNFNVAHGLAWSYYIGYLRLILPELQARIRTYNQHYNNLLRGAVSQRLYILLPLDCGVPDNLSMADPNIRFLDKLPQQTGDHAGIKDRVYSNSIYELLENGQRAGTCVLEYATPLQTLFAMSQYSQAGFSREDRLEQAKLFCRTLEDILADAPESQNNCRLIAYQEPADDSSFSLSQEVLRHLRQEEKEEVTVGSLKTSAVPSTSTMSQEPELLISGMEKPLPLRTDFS

Target: T1, SELENOK-GFP (selenoprotein K with a GFP tag) (human) (UniProt Q9Y6D0)
T1 sequence: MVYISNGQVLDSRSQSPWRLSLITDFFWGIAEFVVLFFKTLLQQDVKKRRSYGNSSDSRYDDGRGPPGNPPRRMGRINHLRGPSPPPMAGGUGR
Assay: co-IP; HEK 293T cells co-transfected with the tagged plasmids; lysed in IP lysis buffer (50 mM Tris-HCl pH 7.4, 50 mM EDTA, 150 mM NaCl, 1% NP-40); immunoprecipitation with anti-MYC, anti-GFP or anti-HA and Protein A/G PLUS-Agarose overnight at 4 °C; five washes; immunoblot

binding: binds
Substance: STING-HA (stimulator-of-interferon gene with an HA tag) (from UniProt Q86WV6 1-379)
